This is one part of the list. At the low end of the ranking the order means little. Measured with an extract: partners may take part in the binding.

The test deals with T1, HNF4alpha8 (COS-7 nuclear extract) (UniProt P41235-5).
T1 sequence: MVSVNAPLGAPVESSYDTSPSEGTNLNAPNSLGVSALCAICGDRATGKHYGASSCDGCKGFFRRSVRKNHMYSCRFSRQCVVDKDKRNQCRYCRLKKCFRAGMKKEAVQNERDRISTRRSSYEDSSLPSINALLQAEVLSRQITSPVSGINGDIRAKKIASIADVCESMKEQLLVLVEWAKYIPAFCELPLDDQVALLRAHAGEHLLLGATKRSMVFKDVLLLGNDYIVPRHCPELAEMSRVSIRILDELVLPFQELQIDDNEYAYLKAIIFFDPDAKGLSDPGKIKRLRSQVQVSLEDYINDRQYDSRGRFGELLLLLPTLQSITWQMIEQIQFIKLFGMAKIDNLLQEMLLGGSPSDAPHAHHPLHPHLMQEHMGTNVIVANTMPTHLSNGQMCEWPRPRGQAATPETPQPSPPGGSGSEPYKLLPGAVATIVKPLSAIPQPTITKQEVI
Nature of the test: protein-binding microarray. Particulars: COS-7 nuclear extract on double-stranded Agilent 4x180k PBM; binding buffer, salt, pH and temperature not given; high values mean tight binding; double strand, one strand shown; sequences stand for … in …GCCTAGGGAGATTAGAGTATCGGTCGA
For TGTACATAATCTGGACCCAAACGAATGGGC, the binding signal (log2 normalized intensity) amounted to 1.38.

On to TTTATTTGCTTATAGCTCAAAGTCCACCAA, for which the binding signal (log2 normalized intensity) worked out at 6.23. As for AATGAATATTCAGACGCATGACCTCAACTC, the figure is 1.8; as for CTATAAACTTGGTTACAGGACCAGGTGTAG, 0.799. Regarding CAGGGCAGGGTATGCCTGACTGTAAGAAGT, the binding signal (log2 normalized intensity) is -1.09. In the case of CCATCTATGCACTCTCACCTTGGGGGCTGC it was 0.0953. As to CTTATCAGTAGTTCTCCTTTCTGCCCTTTG, the binding signal (log2 normalized intensity) worked out at 4.46.

As to AGCCAGTGATTCAACTCTGACCCATAATAA, the binding signal (log2 normalized intensity) is 2.33. With AAGTGCTAGCTTGGTCTGAACCTCATCTGT, the binding signal (log2 normalized intensity) was found to be 0.762. In the case of ATGCTGATAAGGGCCACAGATGGCCTCACT, the binding signal (log2 normalized intensity) is -1.07. With TTATCTGAGACTCAAGGCAAGTTGCTTCCA, the binding signal (log2 normalized intensity) was -1.06. In the case of TGTGCACAGGGTGTGGCTTCCAAGGGGAAT it was -1.27.

Consider CCTCCAGCTCTTTTGAACCCAAGGCCAAAC, for which the binding signal (log2 normalized intensity) came to 2.07.

For the sequence CAAGGGCAGAGTCCTGGGGAGGGTAAGCAT, the binding signal (log2 normalized intensity) is -0.963.

In the case of TATGTCTGATGAATAGAAAGAGGTCAATGT, the binding signal (log2 normalized intensity) came out at 3.35. In the case of CAAAGAATGGAAGGCAGTGTTCCAAAGTGT it was 0.319; in that of CAAGTATTCAAGAAAGGGGCAAAGTTTATG, 3.19. In the case of TGCTGGCATCTCATTACTGACAGAGATCAA it was -0.673; in that of CAGCAGCAGGCAGGGACTTTGGCCCACGGT, 3.34; in that of TCAAGGGGAAGAAATCTAAGATTTATAAAG, -1.16.

Regarding CACTTAGCACAAGTGACTATTCTGGTTTGC, the binding signal (log2 normalized intensity) was 0.555. As to CCTTTGTACCAAAATCACACTGGGAATTGG, the binding signal (log2 normalized intensity) is -0.886.

TGGTAAATAAAGGAACTTACGAAGATAAAT: the binding signal (log2 normalized intensity) is -0.558. As for GTGTGCGTTTCCCAGATATCTCTGGTAAAC, the figure is -1.26; as for GGTTCAAAGGTCATTTCTGCTTGCAACCAA, 5.81; as for GCAGCGGGTCAATTAGCTTGAGCGAGACAG, -1.29.

Turning to GCATTGAAAGCACTAATTAACTGAGCCTCA, the binding signal (log2 normalized intensity) was -1.25.

Turning to GTGACTGAGCAGAGATTTGACCTAAGTCTG, the binding signal (log2 normalized intensity) was 1.87. As for CCATGAGCTGGCCTCACTAAGTCCTGCTTA, the figure is -1.26; as for AGGCTTTGAGTCAACACACCTGTGGGTAAT, -0.786.

With CTTGCTTTCTGCCCAGGGAGGTGCCTGTGC, the binding signal (log2 normalized intensity) is -0.32.

ATCAGAGCTGGAGGAGACCTTTGGATATCA: the binding signal (log2 normalized intensity) stood at 4.01.

Turning to AGATATGAGGCCAGTTTTCCCAAAGGAGCT, the binding signal (log2 normalized intensity) was -1.36.

With CCTCTGAGGTGTTAACCTGATGCTGAAGTC, the binding signal (log2 normalized intensity) was 0.944. In the case of TGAGCAGGCAGTGTCACAGAAATCATGTAG it was -0.839; in that of CAACCCTCCTCCCTTTGGCCATGAAAGTAT, 1.96; in that of GAAAGATAAAAGGCCATAGGGAAAGATAAA, -1.42. As to ATGAGATACCCATTCACATGACCTTTGTCC, the binding signal (log2 normalized intensity) was determined as 8.96.

As for GCCCTGTTTAGGAGGAAATAGAGAGCAGAC, the binding signal (log2 normalized intensity) was -1.36. As to AGTACAGGGCGTCCTTGATAAGCAAGATGA, the binding signal (log2 normalized intensity) was -1.28. Take ATTTGGACTTTTACTCTTAGAGATAATGGG: the binding signal (log2 normalized intensity) came out at 2.47. TGGACACACGAATAATGGAGCTGATGTCCT: the binding signal (log2 normalized intensity) came to 0.829. Regarding TAGCACTTTGGACCTCCACTTTGGAGGGGG, the binding signal (log2 normalized intensity) came out at 2.76. Consider AGCCACTCATTCTTGGAATGCATTGCAAGT, for which the binding signal (log2 normalized intensity) is -1. In the case of ACAAGTGTACAAAGGTCACTTCTGTTCATT it was 6.56; in that of GCAGAAGAATGGATGAGCTAATCAGAGCAT, -1.33; in that of TTCTCATCCGCTAATGACACCAGGGAACAC, -0.383. As for CACTGGCTGCTGCTCAGGAGACCGAGCAGC, the figure is -1.32.

As to TGAATTCTGCAGCAGATGGCCAGCCTTTGG, the binding signal (log2 normalized intensity) was -0.939. In the case of TCTAAACCTAGCAGCCTGCCACCCAACCTG it was -1.32. Turning to GCTCTGATACTTTCTGTATCTAATCTCAGA, the binding signal (log2 normalized intensity) is -0.752.

As to CAAACAGCTTAGGGTTCAAACTCCAGCTCT, the binding signal (log2 normalized intensity) is 4.15. In the case of TGACAAGCAGCCTCAGTGGCTCACAAATGG it was -1.48; in that of GTAAAGCCACTGCCTAGATAAAAGGGTCTT, -1.26; in that of CTCGGAGACACACTCAGGCACTGGGATCCA, -1.1. As for GATTCACAGCAGGCTCACAAGATTGCATTC, the binding signal (log2 normalized intensity) is -1.01. In the case of AACACTGGATAAAGTCCATATTCTTTGTTT it was 2.56; in that of GAGTAAGCAATCAGATATCCATTTATCTCA, -0.96. In the case of GTCATTGGTATCCACAGAGTTCATAATTTT it was 0.993; in that of AAAGTGTCAAGTAGAGACCTGTCTTCCTGG, -0.0215. In the case of TAAGACATGCTCGCAGCTGCATAGATAAGA it was -1.4; in that of GAGCAAAGATCATCTGGTGGCTATCAAGCA, -1.11; in that of TGCAGACAGTCCCTCCTCCAGCATAGGCTA, -1.21.

Consider TTGAAGAGCACAGGGTCAGCAGATCTTTGT, for which the binding signal (log2 normalized intensity) was 0.292.

With TCCCTTGCTCCACCCTTCTATCCCCTTATC, the binding signal (log2 normalized intensity) was determined as 2.94. In the case of TCAACAGAGTGCTTAATCTCTGCTCATAAT it was -1.32. In the case of GTGATCAATGTGACTGGAGCAGAGCGATCA it was -1.34; in that of AGTTCAGCCCTTAGGACCAGGGGGGGAATG, -1.46; in that of CTCAGGCACACAAAAAAAACCACTCTTATC, -1.24. Turning to TCCCAACAGGAGATTACTTCAAGGCTGGAG, the binding signal (log2 normalized intensity) is -1.39. In the case of CTACCCTTCATCTTCAATACAGAGTCCAAA it was 3.83; in that of GCAAGACTTCTTCAGGGAGACTTCCAGGGA, -1.37.

The record behind these values is article PMC10726135.
